From patent US20210324087A1 (CRAGE MEDICAL, published 2021)

Target: T1, mouse CLL1-hFc (mouse; human, UniProt Q504P2 65-267, limits assumed)
T1 construct: also called murine CLL1; not shown: human Fc
T1 sequence (looked up): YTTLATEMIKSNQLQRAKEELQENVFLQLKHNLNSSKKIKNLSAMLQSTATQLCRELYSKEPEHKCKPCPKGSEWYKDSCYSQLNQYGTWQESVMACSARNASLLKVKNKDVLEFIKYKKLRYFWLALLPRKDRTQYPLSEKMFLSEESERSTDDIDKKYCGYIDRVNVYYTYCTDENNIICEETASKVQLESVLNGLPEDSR
Assay: ELISA, plate coated with 1 ug/ml mouse CLL1-hFc, scFv detected with anti-His
Experimental: The species specificity of antibodies 7F8 and 12G4m was detected by standard ELISA. ELISA plates were coated with 1 ug/ml of Human CLL1-hFc, mouse CLL1-hFc, monkey CLL1-hFc at 4° C. overnight, blocked with 2% MPBS for 1-2 hours at room temperature, and 200 nM antibody 7F8/12G4m (scFv) was added to incubate at room temperature for 1 hour. The secondary antibody was diluted at 1:1000 with anti-His mouse monoclonal antibody, and the third antibody was goat anti-mouse-HRP diluted at 1:2000. After incubating for 1 hour at room temperature, the plates were developed and read at OD450 after quenching with 1 M concentrated sulfuric acid, as shown in FIG. 7. Antibodies 7F8 and 12G4m only bind to human CLL1, but not to murine CLL1 and monkey CLL1.

- binding result: no binding (tested: 200 nM)
B1: 7F8 scFv (scFv)
scFv: [about 100 residues left out here]EYYFGYYGYLDYWGQGTLVTVSSGGGGSGGGGSGGGGSDIQMTQSPSTLSASVGDRVTITCRASQWIARWLAWYQQKPGKAPKLLIKDASNLESGVPSRFSGSGSGTEFTLTISSLQPDDFATYYCQQYYSYPMITFGQGTKVEIKR
notes: also called antibody 7F8
